# Source: PubChem BioAssay (NCATS)
# Where “and” joins values, the source holds several entries; their conditions need not be identical. Identical values can stand only once. Inconclusive means that the source gave no clear call. Such entries were picked first, then a sample of the others. For part of these data: Potencies of inconclusive entries are doubtful fits and often do not repeat. Calls of active or inactive are those of the source. Unless noted, the call rests on the fitted dose curve; in most records, active means well fitted curve in the direction sought with a large enough effect; inconclusive means small, poorly fitted or top-dose-only effect, or another doubt; inactive means no such curve, though single readings can be large; an effect the other way counts as inactive or inconclusive.
# Legend:
# [1] = Viability qHTS for spleen associated tyrosine kinase inhibitor (SYKi) naive MV4-11 cells (AID 1963823); further: nearly all actives have a fitted effect of over 40% in size; further: potency means the concentration at half of the fitted maximal effect
# In short: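 CellTiter-Glo luminescence, 10 min room-temperature incubation, gave viability. Cells: naive MV4-11 (500/well), treated 72 hr at 37 C, 5% CO2.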
# [2] = Quantitative highthroughput screen to assess conditional lethalithy of NOMO1 cells grown in Human Plasma-Like Medium with dialyzed fetal bovine serum (HPLM+ds) (AID 1963878); further: nearly all actives have a fitted effect of over 35% in size; further: potency means the concentration at half of the fitted maximal effect;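 on Viability: 100% = DMSO wells and 0% = empty wells on each plate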
# In short: (§1)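 Each medium arm—HPLM with 10% dialyzed FBS, or RPMI1640 with 5 mM glucose and 10% untreated or dialyzed FBS—was screened against an 11-point, 3-fold compound titration for 48 h at 37 °C, with CellTiter-Glo luminescence as endpoint.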
# [3] = Quantitative highthroughput screen to assess conditional lethalithy of SEM cells grown in RPMI1640 with dialyzed fetal bovine serum (RPMI+ds) (AID 1963884); further: nearly all actives have a fitted effect of over 35% in size; further: potency means the concentration at half of the fitted maximal effect;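 on Viability: 100% = DMSO control wells and 0% = empty wells without cells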
# In short: as §1
# [4] = Cellular viability qHTS for adrenocortical cancer (ACC) cell line SW-13 (AID 1963989); details: SW-13 ACC cells viability, CellTiter-Glo, 48 h; activity (max response): stronger effect = lower value; further: nearly all actives have a fitted effect of over 65% in size; further: potency means the concentration at half of the fitted maximal effect;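 on activity (max response): cells grown in serum-free medium with ITS supplement; on the % scale 0 is the no-effect control and ±100 the full control effect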
# In short: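 48 h treatment, SW-13 in ITS/DMEM serum-free; doses up to 46 uM; readout CellTiter-Glo luminescence; curve fit four-parameter logistic.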
# [5] = Quantitative highthroughput screen to assess conditional lethalithy of P12 Ichikawa cells grown in RPMI1640 with dialyzed fetal bovine serum (RPMI+ds) (AID 1963880); details: Potency: P12-Ichikawa viability;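 further: 100% = DMSO wells and 0% = empty wells on each plate; nearly all actives have a fitted effect of over 35% in size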
# In short: as §1
# [6] = Quantitative highthroughput screen to assess conditional lethalithy of P12 Ichikawa cells grown in RPMI1640 with untreated serum (RPMI+s) (AID 1963881); details: Potency: viability;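 further: 100% = DMSO wells and 0% = empty wells without cells; nearly all actives have a fitted effect of over 35% in size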
# In short: as §1
# [7] = Cellular viability qHTS for adrenocortical cancer (ACC) cell line NCI-H295R (AID 1963990); details: CellTiter-Glo ATP luminescence, 48 h; activity change, negative = viability loss: at 46.1 µM (top of the series); further: potency means the concentration at half of the fitted maximal effect; nearly all actives have a fitted effect of over 60% in size
# In short: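 Compound titrations (up to 46 uM final) are applied to NCI-H295R cultures for 48 h at 37C. Viable cell number is estimated by CellTiter-Glo signal, normalised to DMSO and doxorubicin controls.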
# [8] = Viability qHTS for spleen associated tyrosine kinase inhibitor (SYKi) drug resistant MV4-11 cells (AID 1963824)
# In short: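 CellTiter-Glo luminescence, read 10 min after reagent addition, reports viability after a 72 hr compound exposure. Cells are an MV4-11 line made resistant to SYK inhibition, seeded at 500 per well onto compound-containing plates.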
# [9] = target: Polyprotein P1234 (Chikungunya virus (strain S27-African prototype)) (UniProt Q8JUX6); experiment: Selectivity profile for inhibitors of NSP2Pro chikungunya virus (CHIKV): Full length NSP2 enzyme counterscreen (CHIKV-NSP2) (AID 1964101; calls by dose curve; further: potency means the concentration at half of the fitted maximal effect; nearly all actives have a fitted effect of over 65% in size); details: Full-length CHIKV NSP2 protease enzymatic counterscreen; activity change, negative = inhibition: at 50.7 µM (top of the series)
# [10] = system: Chikungunya virus nsP2 protease; experiment: Confirmatory qHTS for inhibitors of NSP2Pro chikungunya virus (CHIKV) (AID 1964105; calls by dose curve; further: potency means the concentration at half of the fitted maximal effect; nearly all actives have a fitted effect of over 75% in size)
# Papain (Carica papaya) = Papain (Carica papaya) (UniProt P00784); experiment: Selectivity profile for inhibitors of NSP2Pro chikungunya virus (CHIKV): Papain Counterscreen (AID 1964104; calls by dose curve; further: potency means the concentration at half of the fitted maximal effect; on activity change, negative = inhibition: on the % scale 0 is the no-effect control and ±100 the full control effect)
# [11] = target: Polyprotein P1234 (Chikungunya virus (strain S27-African prototype)) (UniProt Q8JUX6); experiment: Secondary cell base assay for inhibitors of NSP2Pro Chikungunya virus (CHIKV) (AID 1964100; calls by dose curve; further: potency means the concentration at half of the fitted maximal effect; nearly all actives have a fitted effect of over 70% in size)
# Tags describe the fitted curve by direction and shape.
# Sequence of UniProt Q8JUX6 (Q8JUX6 whole entry, looked up): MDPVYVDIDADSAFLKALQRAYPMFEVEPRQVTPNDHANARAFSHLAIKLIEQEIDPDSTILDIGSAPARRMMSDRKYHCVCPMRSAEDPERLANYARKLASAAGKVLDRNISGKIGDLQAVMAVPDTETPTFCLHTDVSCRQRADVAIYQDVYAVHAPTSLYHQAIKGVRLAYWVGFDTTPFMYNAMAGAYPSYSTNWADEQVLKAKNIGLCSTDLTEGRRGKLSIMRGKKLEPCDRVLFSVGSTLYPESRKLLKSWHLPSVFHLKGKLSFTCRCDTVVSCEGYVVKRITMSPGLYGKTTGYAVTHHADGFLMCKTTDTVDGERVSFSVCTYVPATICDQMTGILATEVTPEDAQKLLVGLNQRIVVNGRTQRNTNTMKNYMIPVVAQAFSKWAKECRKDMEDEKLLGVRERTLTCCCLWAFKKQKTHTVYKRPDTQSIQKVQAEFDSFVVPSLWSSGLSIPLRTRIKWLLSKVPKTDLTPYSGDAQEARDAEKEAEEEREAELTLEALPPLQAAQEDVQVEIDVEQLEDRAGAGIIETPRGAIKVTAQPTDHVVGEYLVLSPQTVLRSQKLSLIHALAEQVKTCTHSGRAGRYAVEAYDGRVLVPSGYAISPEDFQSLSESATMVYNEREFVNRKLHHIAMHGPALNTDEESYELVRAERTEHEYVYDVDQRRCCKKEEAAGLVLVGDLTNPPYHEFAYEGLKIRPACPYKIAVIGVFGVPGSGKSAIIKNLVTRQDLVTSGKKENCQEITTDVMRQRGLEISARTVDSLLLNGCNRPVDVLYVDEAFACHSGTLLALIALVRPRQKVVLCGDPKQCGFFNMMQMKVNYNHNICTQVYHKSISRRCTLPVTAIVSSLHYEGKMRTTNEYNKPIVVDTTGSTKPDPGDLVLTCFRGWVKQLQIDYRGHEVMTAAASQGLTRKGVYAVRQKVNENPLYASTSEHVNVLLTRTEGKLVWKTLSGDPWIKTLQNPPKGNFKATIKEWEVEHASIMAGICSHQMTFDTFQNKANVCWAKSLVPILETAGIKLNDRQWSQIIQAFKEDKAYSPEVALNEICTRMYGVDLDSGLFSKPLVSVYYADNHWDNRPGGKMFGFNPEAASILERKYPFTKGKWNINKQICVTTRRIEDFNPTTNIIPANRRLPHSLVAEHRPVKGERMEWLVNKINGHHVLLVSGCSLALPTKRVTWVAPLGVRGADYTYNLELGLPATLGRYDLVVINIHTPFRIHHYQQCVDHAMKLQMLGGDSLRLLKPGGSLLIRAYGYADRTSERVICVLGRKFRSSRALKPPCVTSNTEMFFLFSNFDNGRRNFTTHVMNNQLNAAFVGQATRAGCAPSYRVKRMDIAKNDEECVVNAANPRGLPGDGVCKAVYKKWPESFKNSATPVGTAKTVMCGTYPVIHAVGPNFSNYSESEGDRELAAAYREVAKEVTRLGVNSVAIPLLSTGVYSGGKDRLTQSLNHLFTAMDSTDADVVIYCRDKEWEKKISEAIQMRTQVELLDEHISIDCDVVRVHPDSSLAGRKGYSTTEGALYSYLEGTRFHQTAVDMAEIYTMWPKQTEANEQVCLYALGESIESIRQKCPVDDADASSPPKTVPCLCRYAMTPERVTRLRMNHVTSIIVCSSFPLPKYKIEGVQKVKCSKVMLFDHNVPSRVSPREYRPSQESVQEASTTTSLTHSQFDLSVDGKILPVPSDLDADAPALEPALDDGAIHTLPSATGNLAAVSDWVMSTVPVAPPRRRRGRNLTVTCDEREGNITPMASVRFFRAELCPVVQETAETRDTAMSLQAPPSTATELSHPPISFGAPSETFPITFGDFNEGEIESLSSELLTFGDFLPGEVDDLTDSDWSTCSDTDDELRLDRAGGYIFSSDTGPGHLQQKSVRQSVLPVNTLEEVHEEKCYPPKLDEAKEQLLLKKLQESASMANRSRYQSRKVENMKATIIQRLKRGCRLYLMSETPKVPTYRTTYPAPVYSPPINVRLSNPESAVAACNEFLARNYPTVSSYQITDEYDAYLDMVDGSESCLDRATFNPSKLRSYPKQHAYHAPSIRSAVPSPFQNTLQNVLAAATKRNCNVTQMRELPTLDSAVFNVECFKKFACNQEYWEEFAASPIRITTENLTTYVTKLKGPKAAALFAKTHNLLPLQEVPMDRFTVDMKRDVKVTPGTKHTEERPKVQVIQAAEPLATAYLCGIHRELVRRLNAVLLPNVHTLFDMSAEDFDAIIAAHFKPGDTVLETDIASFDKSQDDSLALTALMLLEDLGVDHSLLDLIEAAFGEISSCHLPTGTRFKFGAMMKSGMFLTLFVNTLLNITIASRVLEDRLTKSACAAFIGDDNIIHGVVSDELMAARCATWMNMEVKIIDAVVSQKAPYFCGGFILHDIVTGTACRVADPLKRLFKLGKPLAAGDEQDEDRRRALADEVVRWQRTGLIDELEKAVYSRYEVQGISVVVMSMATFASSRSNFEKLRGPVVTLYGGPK
# Sequence of UniProt P00784 (P00784 whole entry, looked up): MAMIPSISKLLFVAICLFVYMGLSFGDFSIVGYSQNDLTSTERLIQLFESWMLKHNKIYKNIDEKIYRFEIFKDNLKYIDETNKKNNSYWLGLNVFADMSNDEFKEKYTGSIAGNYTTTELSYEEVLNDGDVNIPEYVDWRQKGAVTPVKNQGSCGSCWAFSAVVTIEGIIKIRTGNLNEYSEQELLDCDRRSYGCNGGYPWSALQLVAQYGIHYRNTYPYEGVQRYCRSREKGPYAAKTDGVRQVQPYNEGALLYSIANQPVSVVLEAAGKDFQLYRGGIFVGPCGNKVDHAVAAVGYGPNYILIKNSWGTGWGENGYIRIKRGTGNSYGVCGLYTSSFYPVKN
smiles,measurement,setting,value
CN1CCN(c2ccc([N+](=O)[O-])c3no[n+]([O-])c23)CC1,Potency,[1],active: 8.33 µM
same,Potency,[2],"inconclusive: 18.7 µM [cytotoxic, partial curve]"
same,Potency,[3],"inconclusive: 18.7 µM [cytotoxic, partial curve]"
same,activity (max response),[4],inactive: 1.98%
CN1C(=O)COc2c(C(=O)NC3CN4CCC3CC4)cc(Cl)cc21 (configuration not stated),Potency,[1],"inconclusive: 0.0132 µM [cytotoxic, full curve, poor fit]"
same,Potency,[2],"inconclusive: 0.0012 µM [rising, full curve]"
same,Potency,[5],inactive
same,Potency,[6],inactive
same,Potency,[3],inactive
COc1cc(OC)c(OC)cc1C=O,Potency,[1],inactive
same,Potency,[2],inactive
same,Potency,[7],"inconclusive: 7.94 µM [cytotoxic, full curve]"
Cc1cccc(NC(=O)N[C@@H]2N=C(c3ccccc3)c3ccccc3N(C)C2=O)c1,Potency,[1],"inconclusive: 18.4 µM [cytotoxic, partial curve]"
same,Potency,[8],"inconclusive: 16.4 µM [cytotoxic, single point]"
same,Potency,[9],"inconclusive: 16.3 µM [inhibitor, partial curve]"
same,Potency,[10],"inconclusive: 7.11 µM [inhibitor, partial curve]"
CCOC(=O)CC(SP(=S)(OC)OC)C(=O)OCC (configuration not stated),Potency,[1],"inconclusive: 21.7 µM [cytotoxic, partial curve] and inactive"
same,Potency,[8],"inconclusive: 21.7 µM [cytotoxic, partial curve]"
same,Potency,[9],active: 23.1 µM
same,Potency,Papain (Carica papaya),"inconclusive: 9.19 µM [inhibitor, partial curve, poor fit]"
CC(C)=C[C@@H]1[C@@H](C(=O)OCc2coc(Cc3ccccc3)c2)C1(C)C,Potency,[1],inactive
same,Potency,[7],"inconclusive: 23.1 µM [cytotoxic, partial curve, poor fit]"
CN(C)c1cc2c(cc1Sc1nc3c(N)nccc3n1CCNCC(C)(C)C)OCO2,Potency,[1],"inconclusive: 206 nM [cytotoxic, full curve] and active: 186 nM"
same,Potency,[4],active: 1.41 µM
same,Potency,[7],active: 2.24 µM
O=C(N[C@@H]1N=C(c2ccccc2F)c2cccc3c2N(CC3)C1=O)c1cc2ccccc2[nH]1,Potency,[1],"inconclusive: 29.9 µM [cytotoxic, single point]"
same,Potency,[4],"inconclusive: 29.1 µM [cytotoxic, single point]"
same,Potency,[7],"inconclusive: 29.1 µM [cytotoxic, single point]"
COc1ccc(C(c2ccc(OC)cc2)C(Cl)(Cl)Cl)cc1,Potency,[1],"inconclusive: 24.1 µM [cytotoxic, partial curve]"
same,Potency,[4],active: 28.2 µM
O=[N+]([O-])/N=C1\NCCN1Cc1ccc(Cl)nc1,Potency,[1],inactive
same,Potency,[7],"inconclusive: 29.1 µM [cytotoxic, single point]"
CO/C1=C/C(C)=C\[C@@H](C)[C@@H](O)[C@@H](C)C/C(C)=C\C=C/[C@H](OC)[C@@H]([C@@H](C)[C@@H](O)[C@H](C)[C@@]2(O)C[C@@H](O)[C@H](C)[C@@H](C(C)C)O2)OC1=O,Potency,[1],active: 0.0221 µM
same,Potency,[4],active: 0.245 µM
same,Potency,[7],active: 0.0435 µM
CN(C)C(=S)SSC(=S)N(C)C,Potency,[1],"inconclusive: 5.31 µM [cytotoxic, full curve]"
same,Potency,[4],"inconclusive: 29.1 µM [cytotoxic, single point]"
same,Potency,[11],active: 25.1 µM
same,Potency,Papain (Carica papaya),inactive
COc1ccc(Cc2nccc3cc(OC)c(OC)cc23)cc1OC,Potency,[1],active: 6.68 µM and active: 2.35 µM
same,Potency,[4],"inconclusive: 8.2 µM [cytotoxic, partial curve] and inconclusive: 15.8 µM [cytotoxic, partial curve]"
same,Potency,[7],"inconclusive: 12.6 µM [cytotoxic, partial curve]"
